# Reference: PMC6345998
# The chains behind the UniProt entries cited, without tags or fusion partners. Where a name states a change or a piece, a line headed by the entry shows the natural chain unless it says otherwise. Residues count along the entry.
# UniProt P05627: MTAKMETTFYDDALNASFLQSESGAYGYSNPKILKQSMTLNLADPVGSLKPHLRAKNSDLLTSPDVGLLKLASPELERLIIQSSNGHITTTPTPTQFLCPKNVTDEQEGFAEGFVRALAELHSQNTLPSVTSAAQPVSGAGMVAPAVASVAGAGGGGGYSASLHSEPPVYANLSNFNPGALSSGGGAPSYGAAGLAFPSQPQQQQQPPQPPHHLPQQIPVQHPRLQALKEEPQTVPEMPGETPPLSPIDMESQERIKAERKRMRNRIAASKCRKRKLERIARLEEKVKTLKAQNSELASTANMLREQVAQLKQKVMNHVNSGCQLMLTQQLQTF
# UniProt Q62296: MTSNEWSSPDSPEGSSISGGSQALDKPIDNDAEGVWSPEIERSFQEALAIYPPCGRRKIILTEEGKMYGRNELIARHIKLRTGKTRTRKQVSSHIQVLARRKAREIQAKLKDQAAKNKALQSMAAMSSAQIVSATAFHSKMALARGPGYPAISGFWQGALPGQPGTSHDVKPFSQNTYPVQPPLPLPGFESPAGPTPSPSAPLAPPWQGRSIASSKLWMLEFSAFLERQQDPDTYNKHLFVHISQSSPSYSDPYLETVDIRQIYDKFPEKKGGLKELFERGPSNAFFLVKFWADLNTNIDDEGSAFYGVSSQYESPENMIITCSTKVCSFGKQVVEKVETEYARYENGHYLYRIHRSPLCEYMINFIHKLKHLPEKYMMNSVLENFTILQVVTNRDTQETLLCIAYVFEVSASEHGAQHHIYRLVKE
# UniProt Q9EPK5: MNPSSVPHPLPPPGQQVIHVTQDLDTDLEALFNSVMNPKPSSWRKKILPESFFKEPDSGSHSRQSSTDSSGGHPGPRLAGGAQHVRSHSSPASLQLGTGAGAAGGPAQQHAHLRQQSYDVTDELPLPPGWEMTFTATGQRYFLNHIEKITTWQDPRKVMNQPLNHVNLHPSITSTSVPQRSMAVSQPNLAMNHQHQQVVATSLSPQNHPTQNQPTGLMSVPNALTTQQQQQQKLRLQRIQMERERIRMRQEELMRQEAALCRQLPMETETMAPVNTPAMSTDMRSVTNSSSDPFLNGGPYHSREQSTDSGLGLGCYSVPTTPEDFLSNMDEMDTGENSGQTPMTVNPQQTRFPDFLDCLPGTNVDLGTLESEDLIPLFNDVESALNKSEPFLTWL
# N-terminus-deleted TAZ (amino acids 124-395): residues 124-395 of Q9EPK5
# N-terminus-deleted TAZ (amino acids 164-395): residues 164-395 of Q9EPK5
# No constants are given. Whether binding was seen depends on the method and setting. In cells and extracts the contact can be indirect. Some binding calls cover weakened binding; strength is not graded here.
# Experiments:
# [1] = molecular target: c-Jun (endogenous, mouse) (mouse (endogenous in C2C12 and in mouse muscle)) (UniProt P05627); assay: co-IP; endogenous proteins, C2C12 cell lysates; immunoprecipitation with IgG or c-Jun antibodies, blot with TAZ and c-Jun antibodies
# [2] = molecular target: c-Jun (endogenous, mouse) (mouse (endogenous in C2C12 and in mouse muscle)) (UniProt P05627); assay: co-IP; endogenous proteins in mouse muscle (Supplementary Fig. 10); precipitating antibody not told in the text shown
# [3] = molecular target: Tead4 (endogenous, mouse muscle) (mouse (endogenous in muscle)) (UniProt Q62296); assay: as above
# [4] = molecular target: N-terminus-deleted TAZ (amino acids 124-395) (UniProt Q9EPK5); assay: co-IP; 293T cells co-transfected with FLAG-TAZ constructs and c-Jun; lysis in RIPA buffer; immunoprecipitation with anti-FLAG antibodies, blot with TAZ and c-Jun antibodies
# [5] = molecular target: N-terminus-deleted TAZ (amino acids 164-395) (UniProt Q9EPK5); assay: as above
# [6] = molecular target: FLAG-tagged TAZ, wild type (amino acids 1-395) (UniProt Q9EPK5); assay: as above
binding [1],binding [2],binding [3],binding [4],binding [5],binding [6],Substance
binds,binds,binds,–,–,–,"TAZ (endogenous, mouse) (from UniProt Q9EPK5 1-395)"
–,–,–,binds,no binding,binds,c-Jun (ectopically expressed) (from UniProt P05627 1-334)
